# Source: ChEMBL document CHEMBL4888484, “Replenishing the malaria drug discovery pipeline: Screening and hit evaluation of the MMV Hit Generation Library 1 (HGL1) against asexual blood stage Plasmodium falciparum ,using a nano luciferase reporter read-out” (2022)
# Among all 150,000 compounds or so, about 540 (0.36%) showed an effect of 50% or more. The list shows a part of the results.
# Test system: Plasmodium falciparum
# Experiment: Primary screen in NF54 nanoGlo assay, in single point, at 2uM, 72h; a lower Z score goes with more inhibition
# Assay type: functional, Erythrocyte
# Details: timepoint 72 hour
SMILES,% Inhibition [%],Z score
Cc1ncnc(N2CCN(C3CCCCC3)CC2)c1C,-20,2.22
O=S(=O)(Oc1ccc(Cc2ncc(C(F)(F)F)cc2Cl)cc1)c1ccccc1Cl,37,-1.02
CCNC(=O)c1nn(-c2ccc(C)cc2)c(=O)n(Cc2cccnc2)c1=O,-2,0.28
Cc1cc(C)c2oc(C(=O)N(Cc3cccc(Cl)c3)c3ccccn3)c(C)c2c1,17,-2
COCCNC(=O)NCc1ccc(-c2ccco2)o1,-1,0.1
O=S(=O)(C[C@H]1CCCCO1)Nc1cccc(Oc2ccnc3ccccc23)c1,2,-0.19
O=C(N[C@H]1CCc2ccccc21)N1CCN(c2nccs2)CC1,6,-1.09
O=C(N[C@H]1CCN(Cc2cscn2)C[C@@H]1O)c1ccc(Cl)s1,1,-0.12
Cc1cc(Cl)ccc1S(=O)(=O)NCc1nc(C(=O)N2CCCC2)c(C)o1,3,-0.36
O=C1NCCC[C@@H]1NC(=O)[C@@H]1CN(C(=O)c2cccc(F)c2)CCN1C(=O)c1ccccc1,-10,1.27
COc1cc(OC)c(C(=O)N2C[C@H]3CCN(C)[C@H]3C2)cc1OC,-12,1.78
CN(C)C(=O)CN(Cc1nc(-c2cccs2)n[nH]1)c1ccccc1,-5,0.46
Cc1nc2c(s1)C(N[C@@H]1C=C[C@H](CO)C1)CCC2 (some centres undefined),1,-0.06
O=C(Cn1cnc2nc(N3CCCC3)sc2c1=O)Nc1ccc(F)cc1Cl,-16,2.65
CNC(=O)[C@@H]1CN(C(=O)Cc2ccccc2Br)C[C@H]1CO,-6,0.97
Nc1cc2c(c(Cc3cc(N)cc4c3OCOC4)c1)OCOC2,2,-0.31
COC1CCN(C(=O)NC2CCCC2)CC1,-5,0.83
CC(C)(C)CNC(=O)c1[nH]cnc1C(=O)NC1CC1,32,-3.75
Cc1nc2ccccc2nc1N(C)CC(=O)N(C)C,1,-0.1
Cc1ccc(NC(=O)N2CCN(c3ccc(-c4ccccc4)cc3)C(=O)[C@@H]2C)cc1,-13,2.14
O=S(=O)(Nc1ccnn1C1CCCC1)c1cccs1,-5,0.94

SMILES,% Inhibition [%],Z score
Cc1[nH]c(=O)n(C)c(=O)c1CCC(=O)Nc1ccc(C(C)C)cc1,26,-3.34
CN(Cc1cnn(C)c1)C(=O)c1cc2c(s1)CCC2,-4,0.53
CN(C)[C@H]1CCN(C(=O)c2cnn(-c3nccc(-c4ccccc4F)n3)c2C2CC2)C1,-2,0.31
C[C@@H](CCN1CCC(N2CCOC2=O)CC1)c1ccccc1,-11,1
Cc1ccccc1-c1cc(C(=O)NCCC(c2ccccc2)c2ccccc2)c2ccccc2n1,-7,1.15
CN(CCc1cccs1)C(=O)[C@@H](N)Cc1ccccc1,-6,1.02
CC1CN(C(c2ccco2)c2sc3ncnn3c2O)CC(C)O1 (centres undefined),-15,2.86
CCN(Cc1nccn1C)C(=O)c1cccc(C)n1,-6,1.21
CS(=O)(=O)N[C@H]1CCN(C(=O)CC2=CCCCC2)C1,1,-0.11
COc1cc(Cl)cc(C(=O)N2CCCN(C)C3(CCN(C)CC3)C2)c1,-1,0.14
CCc1nccn1CCCNS(=O)(=O)c1ccc(OC)c2c1CCCC2,-12,1.29
CCNC(=O)N1CCC(N(Cc2ccc(F)cc2)C(=O)CN(C2CC2)S(=O)(=O)c2ccc(C)cc2)CC1,2,-0.2
CNC(=O)C[C@H]1CCN(C(=O)CCC(F)(F)F)C1,14,-1.83
C[C@H](NS(C)(=O)=O)C(=O)NC(C)(C)c1ccc(F)cc1Cl,-2,0.28
Cc1nc(C)c(-c2ccc(C(=O)NCCCN3CCC[C@H](O)C3)cc2)s1,-9,1.13
CCc1nccc(-c2nccn2C2CCCC2)n1,-1,0.14
CC(C)(C)OC(=O)N1CCN([C@H]2CCCN(Cc3cc(=O)n4nccc4[nH]3)C2)C(=O)C1,-4,0.74
Cc1ccc(OCCNC(=O)C2CCCC2)cc1C,-14,1.51
COc1ccnc(N(C)Cc2nncn2C)n1,9,-1.21
COc1ccc(CCN2C(=O)N[C@@H](CC(=O)Nc3cc(C)n(C)n3)C2=O)cc1,-6,0.75
COc1ccc(C(=O)N2CCCC[C@@]23CCOC3)o1,-14,2.58
